Among all 120,000 compounds or so, about 5,300 (4.4%) were called active. The shares of active, inactive and inconclusive entries below differ from those in the screen. Calls come from the whole dose curve; as a rule, active = well fitted inhibition curve with a large enough effect; inconclusive = small, poorly fitted or top-dose-only effect; inactive = no such curve, though single readings can be large or run the other way. A potency beside an inconclusive call is a rough fit, not a confirmed value.
Experiment: qHTS Primary assay for Inhibitors of Plasmodium falciparum Dd2 growth in vitro; note: nearly all actives have a fitted effect of over 65% in size
Settings: P. falciparum Dd2 growth, SYBR Green, 72 h; series mostly up to 28.9 µM
Procedure, shortened: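 Readout: SYBR Green fluorescence, 485 nm excitation, 535 nm emission, after ~16 h lysis at 37C. Before that, Dd2-infected red cells (2.5% hematocrit) grew 72 h with compound, 29 uM top final concentration.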
Potency is the fitted concentration of half-maximal effect; tags give direction and shape of the fitted curve.

Row | Structure (SMILES) | Potency
1 | Cc1cnc(C(=O)N2CCOc3ccc(CCC(N)=O)cc3C2)cn1 | inactive
2 | C=CCn1cc2c3c(cccc31)[C@H](CC(C)C)N[C@H](C(=O)NC1CCCC1)C2 | inconclusive: 11.2 µM [inhibitor, partial curve, poor fit]
3 | COCCOCC1(CNCc2cn(C)c3ccccc23)C[C@@H](O)[C@@H](O)C1 (stereo not given in full) | inconclusive: 12.6 µM [inhibitor, partial curve, poor fit]
4 | O=C(c1cc2n(n1)CC(c1ccc3c(c1)OCO3)OC2)N1CCCC1 (stereo not given) | inconclusive: 3.55 µM [inhibitor, partial curve]
5 | CC1CCN(S(=O)(=O)c2ccc3c(ccc(=O)n3CC(=O)Nc3ccc(C(C)C)cc3)c2)CC1 | inconclusive: 0.0089 µM [inhibitor, full curve, poor fit]
6 | CCc1ccc(CNCc2c(C(=O)O)c(C)n(Cc3c(F)cccc3Cl)c2C)cc1 | inconclusive: 10 µM [inhibitor, single point]
7 | Cn1c(=O)n(C)c2cc(N3CCOCC3)c(NS(=O)(=O)c3ccc(C(C)(C)C)cc3)cc21 | inconclusive: 17.8 µM [inhibitor, single point]
8 | COc1ccccc1NC(=O)Cn1c(=O)n(CCC(=O)NCC2CCCO2)c(=O)c2cc(OC)c(OC)cc21 (stereo not given) | inconclusive: 0.708 µM [inhibitor, full curve]
9 | COc1ccccc1-c1cc2nc(C)c(CCC(=O)O)c(C)n2n1 | inconclusive: 5.01 µM [inhibitor, partial curve]
10 | Cc1ccc2nc(-c3ccc(O)cc3)c(Nc3ccc(Cl)cc3)n2c1 | inconclusive: 10 µM [inhibitor, partial curve, poor fit]
11 | c1ccc(CNc2cc3c(cn2)CN(Cc2cccnc2)CCN3)cc1 | inconclusive: 15.8 µM [inhibitor, single point]
12 | CCc1noc([C@@H]2CC(F)(F)CN2C(=O)c2cc(C3CC3)[nH]n2)n1 | inactive
13 | COc1cc(NC(=O)c2cc3c(s2)-c2ccccc2OC3)cc(OC)c1OC | active: 5.62 µM
14 | Cc1cccc(Cn2c(-c3ccc(Cl)cc3)nc(C)c(CCO)c2=O)c1 | inactive
15 | COc1ccc(-c2ccc3ncc(Nc4ccc(F)c(Cl)c4)n3n2)cn1 | inconclusive: 4.47 µM [inhibitor, partial curve, poor fit]
16 | COC(=O)CCNC(=O)NC(CCC(C)C)c1c(-n2cccc2)sc2c1CCN(C)C2 (stereo not given) | inconclusive: 15.8 µM [inhibitor, single point]
17 | O=C1Nc2ccc(-c3ccc(Cl)cc3)cc2C(=O)N2CCN(C(=O)c3cccc(F)c3)C[C@H]12 | inconclusive: 11.2 µM [inhibitor, single point]
18 | CC(=O)c1ccc(Nc2nc3c(S(=O)(=O)c4ccccc4)nnn3c3ccc(Cl)cc23)cc1 | inconclusive: 1.12 µM [inhibitor, single point]
19 | COc1ccc2[nH]c3c(c2c1)CCNC31CCN(C(=O)c2ccnn2C)CC1 | inactive
20 | CN(Cc1cc(F)c(F)c(F)c1)C1CCc2nn(CC3CC3)c(=O)n2CC1 (stereo not given) | inactive

Row | Structure (SMILES) | Potency
21 | O=C1CC[C@@]2(C(=O)N3CCOCC3)CCCC[C@@H]2N1CCc1ccccc1 | inconclusive: 15.8 µM [inhibitor, partial curve, poor fit]
22 | Cc1ccc(NC(=O)Cn2c(=O)c3ccccc3n3nncc23)cc1 | inactive
23 | COc1cccc(C(=O)NCC(c2ccc(N(C)C)cc2)N2CCc3ccccc32)c1 (stereo not given) | inconclusive: 10 µM [inhibitor, single point]
24 | CC(C)c1cc(C(=O)NC2CCN(c3ncccc3C#N)CC2)n(C)n1 | inconclusive: 1 µM [inhibitor, full curve, poor fit]
25 | CN1c2cc(C(=O)N3CCC(C(N)=O)(N4CCCCC4)CC3)ccc2C(=O)N2CCCC21 (stereo not given) | inactive
26 | Cc1ccc(CCNC(=O)c2c[nH]c3ccc(S(=O)(=O)Nc4ccc(C)cc4C)cc3c2=O)cc1 | inconclusive: 11.2 µM [inhibitor, single point]
27 | COc1ccc(-c2nc(C(C)C)nc3c2CN(C(=O)c2ccc4c(c2)OCO4)CC3)cc1 | inconclusive: 7.94 µM [inhibitor, single point]
28 | O=C(NCC(F)(F)F)c1cc(C2CC2)nc2c1c(C1CCCN1)nn2-c1ccccc1 (stereo not given) | active: 8.91 µM
29 | CC(=O)Nc1ccc(CC(=O)N2CCc3c(nc4cc(-c5ccccc5Cl)[nH]n4c3=O)C2)cc1 | inconclusive: 3.98 µM [inhibitor, single point]
30 | COc1ccc(Cl)cc1C(=O)N1CCC2(CC1)NC(=O)N(c1cccc(F)c1)N2 | active: 10 µM
31 | CN1CCCCCC(O)c2cc(C(=O)NCCCc3ccccc3)ccc21 (stereo not given) | inactive
32 | COc1ccc(-c2cc(C(=O)NCC(C)C)c3c(C4CCCN4)noc3n2)cc1 (stereo not given) | inconclusive: 8.91 µM [inhibitor, partial curve, poor fit]
33 | COc1ccc(NC(=O)c2ccc3c(SCC(=O)O)c4c(nc3c2)CCCC4)c(OC)c1 | inconclusive: 17.8 µM [inhibitor, single point]
34 | CC(C)c1nc2c(c(-c3ccc(Cl)cc3)n1)CCN(C(=O)c1ccc3c(c1)OCO3)CC2 | inconclusive: 10 µM [inhibitor, single point]
35 | Cc1cccn2c(CC(=O)N3CCN(C)[C@@H]4CS(=O)(=O)C[C@@H]43)cnc12 | inactive
36 | O=C(NCCCN1CCN(c2ccc(F)cc2)CC1)c1cnn(-c2ccc(F)cc2)c1-n1cccc1 | inconclusive: 10 µM [inhibitor, partial curve]
37 | O=C1CC(NCc2ccoc2)CN1CCc1cccc(Cl)c1 (stereo not given) | active: 10 µM
38 | CCc1ccc(NC(=O)CSc2ccc(-c3ccccn3)nn2)cc1 | inconclusive: 15.8 µM [inhibitor, single point]
39 | CC(C)NC(=O)OC[C@H]1C[C@@H]2CCN1C[C@@H]2c1cc(-c2ccc(F)cc2)nn1C | inconclusive: 0.447 µM [inhibitor, full curve, poor fit]
40 | CCOC(=O)c1ccc(NC(=O)CCn2c(=O)c3cccn3c3cccnc32)cc1 | inconclusive: 11.2 µM [inhibitor, partial curve]
